Publication PMC4336329 (PLoS ONE, 2015)
The whole screen tested about 310,000 compounds, of which about 14,000 (4.5%) showed an effect of 50% or more. The effect is printed as a negative number. The list shows a part of the results.

The compounds below were run against human ether-à-go-go-related gene (hERG) potassium channel (human, UniProt Q12809) (assay: primary screen, population patch clamp on CHO cells stably expressing hERG).
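Also: peak tail current of the secondary pulse compared with the same well before compound.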

Sequence of human ether-à-go-go-related gene (hERG) potassium channel (Q12809 whole entry, looked up): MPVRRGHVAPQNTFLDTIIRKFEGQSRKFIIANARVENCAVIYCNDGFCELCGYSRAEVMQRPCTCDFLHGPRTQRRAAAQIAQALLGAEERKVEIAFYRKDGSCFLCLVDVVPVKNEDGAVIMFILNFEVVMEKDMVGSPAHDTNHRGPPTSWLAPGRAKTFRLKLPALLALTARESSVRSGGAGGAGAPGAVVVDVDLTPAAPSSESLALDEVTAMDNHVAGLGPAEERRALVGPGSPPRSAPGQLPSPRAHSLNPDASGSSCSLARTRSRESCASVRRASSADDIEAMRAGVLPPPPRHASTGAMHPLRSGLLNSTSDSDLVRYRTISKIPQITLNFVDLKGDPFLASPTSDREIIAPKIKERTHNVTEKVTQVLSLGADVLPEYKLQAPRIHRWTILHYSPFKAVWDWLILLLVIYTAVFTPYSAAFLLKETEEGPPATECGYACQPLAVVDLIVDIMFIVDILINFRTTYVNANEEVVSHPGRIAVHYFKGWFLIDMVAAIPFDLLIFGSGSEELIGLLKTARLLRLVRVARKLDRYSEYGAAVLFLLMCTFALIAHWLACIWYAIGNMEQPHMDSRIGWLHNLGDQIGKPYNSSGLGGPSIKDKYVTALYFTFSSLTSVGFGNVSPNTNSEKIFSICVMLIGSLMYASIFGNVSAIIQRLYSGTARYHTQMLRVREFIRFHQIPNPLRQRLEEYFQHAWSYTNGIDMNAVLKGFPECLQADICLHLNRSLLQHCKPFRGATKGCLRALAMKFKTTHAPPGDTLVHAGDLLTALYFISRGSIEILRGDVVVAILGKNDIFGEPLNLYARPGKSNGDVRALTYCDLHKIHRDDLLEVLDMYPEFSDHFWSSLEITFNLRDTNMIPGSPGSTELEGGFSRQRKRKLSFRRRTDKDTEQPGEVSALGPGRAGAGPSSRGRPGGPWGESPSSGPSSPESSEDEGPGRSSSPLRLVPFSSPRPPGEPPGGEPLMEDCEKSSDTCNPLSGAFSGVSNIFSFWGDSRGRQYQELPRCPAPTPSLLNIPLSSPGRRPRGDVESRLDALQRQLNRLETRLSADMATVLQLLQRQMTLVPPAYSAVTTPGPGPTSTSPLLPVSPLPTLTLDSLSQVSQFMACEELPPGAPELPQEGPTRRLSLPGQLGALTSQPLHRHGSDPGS

Structure (SMILES) | hERG current change (%, negative = inhibition) at 10uM [%]
Cc1ccc(C)c(NC(=O)CSc2c(C)n[nH]c2C)c1 | 18.6
OCc1cc(Br)ccc1OCc1nc2ccccc2s1 | 24.7
O=C(COC(=O)c1ccc(S(=O)(=O)NCc2ccco2)cc1)NCC1CCCCC1 | -2.43
Cc1cc(=O)oc(C)c1C(=O)NCc1ccc(F)cc1 | -15.9
Cc1ccc(Oc2c(C(N)=O)cc([N+](=O)[O-])cc2[N+](=O)[O-])cc1 | -15.4
COc1ccccc1NC(=O)NNC(=O)CCc1ccccc1 | 1.12
O=C(c1cc(=O)[nH]c2ccccc12)N(Cc1nnc(-c2ccccc2Cl)o1)C1CC1 | -19.5
CCc1c(C)nn(C(=O)/C(C#N)=C\N(C)C)c1C | -1.67
COc1ccc(CNC(=O)COC(=O)c2c[nH]c(=O)[nH]c2=O)cc1OC | 4.82
COc1ccc(C(CC(=O)O)N2Cc3ccccc3C2=O)cc1 (centres unmarked) | 14.4
COc1ccc(N2CCN(C(=O)CN3C(=O)NC(C)(c4ccc5ccccc5c4)C3=O)CC2)cc1 (centres unmarked) | -17.6
O=C(/C=C/Sc1ccc(C(F)(F)F)cn1)c1ccccc1 | 17.3
COc1cc(/C=C2/SC(=NCc3ccccc3)N(Cc3ccccc3)C2=O)ccc1O | 13.1
CN(C(=O)c1ccc(Oc2ccc([N+](=O)[O-])cc2)cc1)C1CCCCC1 | -24.5
COc1ccc(NC(C#N)c2ccc(OC)cc2)cc1 (centres unmarked) | 26.7
CC(=O)Nc1cccc(NC(=O)c2cc(Cl)ccc2Cl)c1 | 4.28
COC(=O)c1[nH]c2ccccc2c1NC(=O)c1c(F)cccc1F | 17.1
CCC(=O)c1c[nH]c(C(=O)NCCc2ccccn2)c1 | 3.31
CCC(C)NC(=O)c1cc(-c2ccc3c(c2)OCO3)on1 (centres unmarked) | -8.08

Structure (SMILES) | hERG current change (%, negative = inhibition) at 10uM [%]
O=C(/C=C/c1cccc(Br)c1)Nc1nn[nH]n1 | 10.8
Cc1c(/C=N/NC(=O)CNc2ccccc2)c2ccccn2c1C(=O)c1ccncc1 | 0.0344
Cc1nc2ccc(Br)cc2c(-c2ccccc2)c1C(=O)O | 19.8
O=C(OCc1ccc([N+](=O)[O-])cc1)C1CCN(S(=O)(=O)c2ccccc2)CC1 | -37.3
CCOC(=O)c1[nH]ncc1CN1CCCC(C(=O)c2cccc3ccccc23)C1 (centres unmarked) | -45.8
CNC(=S)Nc1ccccc1-c1ccccc1 | -4.35
COc1ccc(C(=O)C2CCCN(C(=O)c3cccnc3OC)C2)c(C)c1 (centres unmarked) | 23.6
Fc1ccc(CNCCc2c[nH]c3ccccc23)cc1 | -5.83
Cc1csc(NC(=O)C2CCN(C(=O)c3ccccc3C)CC2)n1 | 7.62
COc1ccc(NC(=O)CN(C)S(=O)(=O)c2ccc3c(c2)NC(=O)CS3)cc1 | -6.66
Cc1c(NS(=O)(=O)c2cccc3nsnc23)c(=O)n(-c2ccccc2)n1C | 1.11
O=C(CC1Sc2ccccc2NC1=O)NCc1ccccc1 (centres unmarked) | 4.59
Cc1ccccc1OCc1n[nH]c(=S)n1-c1ccccc1 | 10
COc1ccc(NS(=O)(=O)c2cc(NC(=O)c3ccc(=O)[nH]c3)ccc2N2CCCC2)cc1 | 12.7
COCCn1c(N)c(Sc2ccccc2)c(=O)[nH]c1=O | 26.7
COc1ccc(OC)c(C2Nc3c(Cl)ccc(C(=O)O)c3C3C=CCC32)c1 (centres unmarked) | 2.48
O=C(Nn1cnnc1)C1CCCN1S(=O)(=O)c1ccc(F)cc1 (centres unmarked) | 6.05
Nn1c(SCc2cn3ccsc3n2)nnc1-c1ccncc1 | 6.48
COCCCNc1nc2nonc2nc1NCCSC | 11.3

Structure (SMILES) | hERG current change (%, negative = inhibition) at 10uM [%]
CS(=O)(=O)c1ccc(C(=O)Nc2ccc(N3CCCC3)cc2)c(Cl)c1 | 6.23
C/C(=N/NC(=O)c1ccc(Br)s1)c1ccncc1 | 14.7
Cc1cccc(C)c1Nc1nnc(SCC(=O)Nc2cc(S(=O)(=O)N3CCCCC3)ccc2Cl)s1 | 1.91
Cc1nn(CC(=O)N2CCN(c3cccc(C(F)(F)F)c3)CC2)c(=O)c2cccn12 | -19.6
COc1cccc(C(=O)NCC2(c3ccccc3)CCCC2)c1OC | 3.79
O=C(Oc1ccccc1)c1ccc2c(c1)C(=O)N(Cc1ccncc1)C2=O | -24.8
O=C(CSc1nnc(-c2c[nH]c3ccccc23)o1)N1c2ccccc2CCc2ccccc21 | 17.8
Cc1cc(=O)oc2c1ccc1oc(/C(=N/O)c3ccccc3)c(C)c12 | 16.5
CC(=O)Nc1ccc(NC(=O)CSc2nccn2Cc2ccccc2)cc1 | 3.96
COC(=O)CSc1nnc(CNC(=O)Cc2ccccc2)n1-c1ccccc1OC | -4.41
COc1ccc(N2C(=O)N3[C@H](c4ccc(Br)cc4)[C@@H]4C(=O)N(C(C)(C)C)C(=O)[C@@H]4[C@]3(Cc3ccccc3)C2=O)cc1 | 5.86
COc1ccc(/C=N/NC(=O)c2ccc(CN3c4cccc5cccc(c45)S3(=O)=O)cc2)cc1 | 4.03
O=C(NN1CCOCC1)c1ccc(Br)s1 | 36
O=C(CCc1ccccn1)N1CCCC(CNS(=O)(=O)c2cccs2)C1 (centres unmarked) | 0.679
OC1(c2ccc3c(c2)OCO3)CCN(Cc2ccccn2)CC1 | -6.96
Cc1ccccc1S(=O)(=O)Cc1ccc(C(=O)N2CCN(c3ncccn3)CC2)o1 | -23.3
O=C(N/N=C/c1cccc(OCC(=O)N2CCCC2)c1)C(=O)Nc1ccccc1F | -19.3
Cc1cccc(NCC(=O)NNC(=S)Nc2ccccc2)c1 | 17.8
